Assay results published in publication PMC4661828.
Read-outs that look alike come from different tables or passages of the source. Results are given in words; binding and its absence hold for the method and conditions named. For some of these results: Binding seen in cells or lysates may run through a third protein. Some entries that bind do so weakly or less than the wild type. For some of these results: Tags and fused reporters may be left off the sequences shown.

Amino acid sequences for entries named in this document (tags omitted).
UniProt Q9C6M5: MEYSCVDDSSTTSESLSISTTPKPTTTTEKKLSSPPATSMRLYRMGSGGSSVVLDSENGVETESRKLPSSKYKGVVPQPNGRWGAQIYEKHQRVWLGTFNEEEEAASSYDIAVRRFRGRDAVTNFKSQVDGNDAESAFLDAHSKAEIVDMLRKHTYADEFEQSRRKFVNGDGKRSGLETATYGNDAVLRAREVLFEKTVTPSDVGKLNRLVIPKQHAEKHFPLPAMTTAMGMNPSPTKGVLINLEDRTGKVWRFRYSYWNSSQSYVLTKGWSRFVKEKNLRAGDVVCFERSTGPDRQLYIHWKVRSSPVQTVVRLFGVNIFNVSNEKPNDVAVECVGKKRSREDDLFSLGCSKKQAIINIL
UniProt Q9S7Q7: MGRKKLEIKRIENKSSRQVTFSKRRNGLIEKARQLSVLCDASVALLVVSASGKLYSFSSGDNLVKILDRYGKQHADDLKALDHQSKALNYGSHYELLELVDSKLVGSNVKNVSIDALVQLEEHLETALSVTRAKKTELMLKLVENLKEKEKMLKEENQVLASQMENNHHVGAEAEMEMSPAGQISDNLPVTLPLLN
UniProt P82280: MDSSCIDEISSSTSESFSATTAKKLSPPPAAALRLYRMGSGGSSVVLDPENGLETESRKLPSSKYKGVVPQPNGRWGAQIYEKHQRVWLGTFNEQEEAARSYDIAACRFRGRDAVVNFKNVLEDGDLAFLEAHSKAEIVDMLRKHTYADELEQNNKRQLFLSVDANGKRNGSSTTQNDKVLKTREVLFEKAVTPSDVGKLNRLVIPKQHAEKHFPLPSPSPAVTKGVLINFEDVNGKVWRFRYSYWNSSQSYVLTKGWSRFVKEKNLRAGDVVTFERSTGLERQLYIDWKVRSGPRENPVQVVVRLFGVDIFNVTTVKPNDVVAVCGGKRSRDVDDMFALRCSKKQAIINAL

T1: CONSTITUTIVE PHOTOMORPHOGENIC 10 (COP10), full-length, two-hybrid bait in pGBKT7 (Arabidopsis thaliana) (UniProt Q9LJD7)
T1 sequence: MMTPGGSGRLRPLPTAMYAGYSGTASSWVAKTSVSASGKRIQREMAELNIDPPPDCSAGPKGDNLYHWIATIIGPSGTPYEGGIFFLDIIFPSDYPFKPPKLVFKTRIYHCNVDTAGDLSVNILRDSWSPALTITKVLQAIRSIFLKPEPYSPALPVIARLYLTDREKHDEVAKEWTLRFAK

T2: cYFP-COP10 (BiFC construct) (Arabidopsis thaliana) (UniProt Q9LJD7)
T2 sequence: T1 sequence

T3: COP10-cYFP (BiFC construct) (Arabidopsis thaliana) (UniProt Q9LJD7)
T3 sequence: T1 sequence

B1: GIGANTEA (GI), full-length, two-hybrid prey (protein, UniProt Q9SQI2 1-1173)
chain: MASSSSSERWIDGLQFSSLLWPPPRDPQQHKDQVVAYVEYFGQFTSEQFPDDIAELVRHQYPSTEKRLLDDVLAMFVLHHPEHGHAVILPIISCLIDGSLVYSKEAHPFASFISLVCPSSENDYSEQWALACGEILRILTHYNRPIYKTEQQNGDTERNCLSKATTSGSPTSEPKAGSPTQHERKPLRPLSPWISDILLAAPLGIRSDYFRWCSGVMGKYAAGELKPPTIASRGSGKHPQLMPSTPRWAVANGAGVILSVCDDEVARYETATLTAVAVPALLLPPPTTSLDEHLVAGLPALEPYARLFHRYYAIATPSATQRLLLGLLEAPPSWAPDALDAAVQLVELLRAAEDYASGVRLPRNWMHLHFLRAIGIAMSMRAGVAADAAAALLFRILSQPALLFPPLSQVEGVEIQHAPIGGYSSNYRKQIEVPAAEATIEATAQGIASMLCAHGPEVEWRICTIWEAAYGLIPLNSSAVDLPEIIVATPLQPPILSWNLYIPLLKVLEYLPRGSPSEACLMKIFVATVETILSRTFPPESSRELTRKARSSFTTRSATKNLAMSELRAMVHALFLESCAGVELASRLLFVVLTVCVSHEAQSSGSKRPRSEYASTTENIEANQPVSNNQTANRKSRNVKGQGPVAAFDSYVLAAVCALACEVQLYPMISGGGNFSNSAVAGTITKPVKINGSSKEYGAGIDSAISHTRRILAILEALFSLKPSSVGTPWSYSSSEIVAAAMVAAHISELFRRSKALTHALSGLMRCKWDKEIHKRASSLYNLIDVHSKVVASIVDKAEPLEAYLKNTPVQKDSVTCLNWKQENTCASTTCFDTAVTSASRTEMNPRGNHKYARHSDEGSGRPSEKGIKDFLLDASDLANFLTADRLAGFYCGTQKLLRSVLAEKPELSFSVVSLLWHKLIAAPEIQPTAESTSAQQGWRQVVDALCNVVSATPAKAAAAVVLQAERELQPWIAKDDEEGQKMWKINQRIVKVLVELMRNHDRPESLVILASASDLLLRATDGMLVDGEACTLPQLELLEATARAIQPVLAWGPSGLAVVDGLSNLLKCRLPATIRCLSHPSAHVRALSTSVLRDIMNQSSIPIKVTPKLPTTEKNGMNSPSYRFFNAASIDWKADIQNCLNWEAHSLLSTTMPTQFLDTAARELGCTISLSQ
B2: GI N-terminal region (aa 1-507), two-hybrid prey (domain or fragment, UniProt Q9SQI2 1-507)
chain: MASSSSSERWIDGLQFSSLLWPPPRDPQQHKDQVVAYVEYFGQFTSEQFPDDIAELVRHQYPSTEKRLLDDVLAMFVLHHPEHGHAVILPIISCLIDGSLVYSKEAHPFASFISLVCPSSENDYSEQWALACGEILRILTHYNRPIYKTEQQNGDTERNCLSKATTSGSPTSEPKAGSPTQHERKPLRPLSPWISDILLAAPLGIRSDYFRWCSGVMGKYAAGELKPPTIASRGSGKHPQLMPSTPRWAVANGAGVILSVCDDEVARYETATLTAVAVPALLLPPPTTSLDEHLVAGLPALEPYARLFHRYYAIATPSATQRLLLGLLEAPPSWAPDALDAAVQLVELLRAAEDYASGVRLPRNWMHLHFLRAIGIAMSMRAGVAADAAAALLFRILSQPALLFPPLSQVEGVEIQHAPIGGYSSNYRKQIEVPAAEATIEATAQGIASMLCAHGPEVEWRICTIWEAAYGLIPLNSSAVDLPEIIVATPLQPPILSWNLYIPLLKV
B3: GI C-terminal region (aa 801-1173), two-hybrid prey (domain or fragment, UniProt Q9SQI2 801-1173)
chain: LEAYLKNTPVQKDSVTCLNWKQENTCASTTCFDTAVTSASRTEMNPRGNHKYARHSDEGSGRPSEKGIKDFLLDASDLANFLTADRLAGFYCGTQKLLRSVLAEKPELSFSVVSLLWHKLIAAPEIQPTAESTSAQQGWRQVVDALCNVVSATPAKAAAAVVLQAERELQPWIAKDDEEGQKMWKINQRIVKVLVELMRNHDRPESLVILASASDLLLRATDGMLVDGEACTLPQLELLEATARAIQPVLAWGPSGLAVVDGLSNLLKCRLPATIRCLSHPSAHVRALSTSVLRDIMNQSSIPIKVTPKLPTTEKNGMNSPSYRFFNAASIDWKADIQNCLNWEAHSLLSTTMPTQFLDTAARELGCTISLSQ
B4: nYFP-GI (BiFC construct) (protein, UniProt Q9SQI2 1-1173)
chain: B1 chain
B5: nYFP-MSI4 (MULTICOPY SUPPRESSOR OF IRA1 4/FVE, BiFC construct) (protein, UniProt O22607 1-507)
chain: MESDEAAAVSPQATTPSGGTGASGPKKRGRKPKTKEDSQTPSSQQQSDVKMKESGKKTQQSPSVDEKYSQWKGLVPILYDWLANHNLVWPSLSCRWGPQLEQATYKNRQRLYLSEQTDGSVPNTLVIANCEVVKPRVAAAEHISQFNEEARSPFVKKYKTIIHPGEVNRIRELPQNSKIVATHTDSPDVLIWDVETQPNRHAVLGAANSRPDLILTGHQDNAEFALAMCPTEPFVLSGGKDKSVVLWSIQDHITTIGTDSKSSGSIIKQTGEGTDKNESPTVGPRGVYHGHEDTVEDVAFSPTSAQEFCSVGDDSCLILWDARTGTNPVTKVEKAHDADLHCVDWNPHDDNLILTGSADNTVRLFDRRKLTANGVGSPIYKFEGHKAAVLCVQWSPDKSSVFGSSAEDGLLNIWDYDRVSKKSDRAAKSPAGLFFQHAGHRDKVVDFHWNASDPWTIVSVSDDCETTGGGGTLQIWRMSDLIYRPEEEVVAELEKFKSHVMTCASKP
B6: GI middle region (aa 401-907), two-hybrid prey (domain or fragment, UniProt Q9SQI2 401-907)
chain: ALLFPPLSQVEGVEIQHAPIGGYSSNYRKQIEVPAAEATIEATAQGIASMLCAHGPEVEWRICTIWEAAYGLIPLNSSAVDLPEIIVATPLQPPILSWNLYIPLLKVLEYLPRGSPSEACLMKIFVATVETILSRTFPPESSRELTRKARSSFTTRSATKNLAMSELRAMVHALFLESCAGVELASRLLFVVLTVCVSHEAQSSGSKRPRSEYASTTENIEANQPVSNNQTANRKSRNVKGQGPVAAFDSYVLAAVCALACEVQLYPMISGGGNFSNSAVAGTITKPVKINGSSKEYGAGIDSAISHTRRILAILEALFSLKPSSVGTPWSYSSSEIVAAAMVAAHISELFRRSKALTHALSGLMRCKWDKEIHKRASSLYNLIDVHSKVVASIVDKAEPLEAYLKNTPVQKDSVTCLNWKQENTCASTTCFDTAVTSASRTEMNPRGNHKYARHSDEGSGRPSEKGIKDFLLDASDLANFLTADRLAGFYCGTQKLLRSVLAEKPE

How the values were obtained:
[1] = molecular target: T1, CONSTITUTIVE PHOTOMORPHOGENIC 10 (COP10), full-length, two-hybrid bait in pGBKT7 (Arabidopsis thaliana); test: two-hybrid; … GAL4 system 3, yeast AH109; COP10 in pGBKT7 as bait, partners in pGADT7 as prey; growth on medium lacking adenine, leucine, histidine and tryptophan; CPRG beta-galactosidase assay
[2] = molecular target: T1, CONSTITUTIVE PHOTOMORPHOGENIC 10 (COP10), full-length, two-hybrid bait in pGBKT7 (Arabidopsis thaliana); test: as above; remark: listed apart in the source
[3] = molecular target: T2, cYFP-COP10 (BiFC construct) (Arabidopsis thaliana); test: split reporter; BiFC, nEYFP and cEYFP fusion plasmids co-bombarded 1:1 into onion epidermal cells; MG132, 16-24 h at 22 °C in the dark; confocal microscopy
[4] = molecular target: T3, COP10-cYFP (BiFC construct) (Arabidopsis thaliana); test: split reporter; BiFC, nEYFP and cEYFP fusion plasmids co-bombarded 1:1 into onion epidermal cells; MG132, 16-24 h at 22 °C in the light; confocal microscopy

| Molecule | binding [1] | binding [2] | further results |
| --- | --- | --- | --- |
| …O1 (TEM1), two-hybrid prey (from UniProt Q9C6M5 1-361) | no binding |  |  |
| SHORT … PHASE (SVP), two-hybrid prey (from UniProt Q9FVC1 1-240) | no binding |  |  |
| FLOWERING LOCUS C (FLC), two-hybrid prey (from UniProt Q9S7Q7 1-196) | no binding |  |  |
| …O2 (TEM2), two-hybrid prey (from UniProt P82280 1-352) | no binding |  |  |
| B1 |  | binds |  |
| B2 |  | binds |  |
| B3 |  | binds |  |
| B4 |  |  | binding [3]: binds |
| B5 |  |  | binding [4]: binds |
| B6 |  | no binding |  |
